The supplement of paper PMC12217912
Some of the results follow. The full chains were built here from the parent and the listed change. Values near 0.05 are background.

B1: TEV protease; numbered along this chain (parent)
chain: MGESLFKGPRDYNPISSSICHLTNESDGHTTSLYGIGFGPFIITNKHLFRRNNGTLVVQSLHGVFKVKDTTTLQQHLVDGRDMIIIRMPKDFPPFPQKLKFREPQREERICLVTTNFQTKSMSSMVSDTSCTFPSGDGIFWKHWIQTKDGQCGSPLVSTRDGFIVGIHSASNFTNTNNYFTSVPKNFMELLTNQEAQQWVSGWRLNADSVLWGGHKVFMVKPEEPFQPVKEATQL

Variants of: B1
Assay: raw area under fraction-flipped curve 0-4 h after induction (AUC4h, not background-subtracted), DNA-recorder readout of cleavage of the substrate (dimensionless); higher = more cleavage of the substrate by the protease variant
Settings: temperature: 34 °C; time window: 0-4 h after rhamnose induction
Description: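 In vivo DNA recorder in E. coli TOP10(DE3) ΔrhaA at 34 °C. Each TEVp single-site mutant (parent TEVp 0) is paired with a single-site variant of the 7-mer TEVs (canonical ENLYFQ|S). The substrate sits between flexible linkers in a Bxb1-sfGFP-TEVs-SsrA fusion, so cleavage stabilises Bxb1 and speeds flipping of a recombination array, read by NGS. The value is the raw area under the fraction-flipped curve over 0-4 h after rhamnose induction (AUC4h), with ≥20 reads per time point. It is not background-subtracted; inactive controls average about 0.047.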
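Note: Bxb1 expression induced with 0.2% (w/v) L-rhamnose at OD600 near 0.5, cultures sampled hourly, flipped fraction per protease–substrate barcode pair counted by paired-end Illumina sequencing.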

Variant | area with substrate ENAYFQS | area with substrate ENCYFQS | area with substrate ENDYFQS | area with substrate ENGYFQS | area with substrate ENIYFQS | area with substrate ENKYFQS | area with substrate ENMYFQS | area with substrate ENNYFQS | area with substrate ENQYFQS | area with substrate ENSYFQS | area with substrate ENTYFQS | area with substrate ENVYFQS | area with substrate ENWYFQS | area with substrate ENYYFQS | area with substrate ENEYFQS | area with substrate ENFYFQS | area with substrate ENRYFQS | area with substrate ENHYFQS | area with substrate ENPYFQS
M188W | 0.0669 | 0.0615 | 0.0862 | 0.0713 | 0.123 | 0.054 | 0.0794 | 0.0594 | 0.0454 | 0.0657 | 0.0611 | 0.0856 | 0.0488 | 0.0826 | – | – | – | – | –
E223H | 0.0459 | 0.0764 | 0.0581 | 0.0585 | 0.0828 | – | 0.0601 | 0.0721 | 0.0571 | 0.0803 | 0.0569 | – | 0.0883 | 0.0604 | 0.0576 | 0.0582 | 0.0541 | – | –
A196K | 0.1 | 0.0704 | 0.0648 | 0.0656 | 0.105 | 0.0396 | – | 0.0529 | 0.0638 | 0.0666 | 0.0558 | 0.0743 | 0.0094 | – | 0.0595 | 0.052 | 0.0586 | 0.0544 | 0.0522
G150P | 0.0505 | 0.0569 | 0.0465 | 0.0707 | 0.104 | 0.0705 | 0.0592 | 0.0626 | 0.0553 | 0.0611 | 0.0593 | 0.0627 | – | 0.0568 | 0.0568 | 0.068 | 0.0534 | – | 0.0746
E108M | 0.0471 | 0.0685 | 0.0537 | 0.062 | – | 0.0466 | 0.0989 | 0.0428 | – | 0.0515 | – | 0.0639 | – | 0.0497 | – | – | – | – | –
S124T | 0.0597 | 0.0639 | – | 0.0801 | 0.0959 | 0.0727 | 0.0703 | 0.0522 | 0.062 | – | – | – | – | 0.072 | 0.0545 | 0.0857 | – | 0.0549 | –
H62W | 0.0567 | – | 0.064 | 0.0554 | – | 0.0759 | 0.0687 | 0.0649 | 0.0501 | – | 0.0732 | 0.0704 | 0.0428 | 0.0572 | 0.0759 | – | 0.0679 | 0.0695 | 0.0653
L77W | 0.0525 | 0.0774 | 0.0483 | – | – | 0.0498 | – | – | 0.0734 | – | – | 0.0535 | – | – | – | 0.031 | – | – | 0.0422
I145Q | 0.0634 | 0.0596 | 0.0539 | 0.0544 | 0.0724 | – | – | 0.0521 | 0.0299 | 0.0456 | – | 0.0656 | 0.0474 | 0.0573 | 0.0592 | 0.0484 | 0.0515 | 0.0566 | –
K100H | 0.0572 | 0.0781 | – | – | 0.09 | 0.0684 | – | – | 0.0574 | 0.0599 | – | 0.0699 | 0.003 | – | 0.0661 | – | – | 0.0585 | 0.0536
D27L | 0.0568 | 0.0822 | 0.0624 | 0.0639 | 0.0943 | 0.0662 | 0.0803 | 0.0492 | 0.0567 | 0.0568 | 0.0823 | 0.0594 | 0.0059 | 0.0538 | 0.0652 | 0.0469 | 0.0605 | 0.0634 | 0.0558
S201A | 0.0724 | 0.0681 | – | 0.073 | – | 0.0574 | 0.0551 | – | 0.0646 | 0.06 | – | – | – | 0.0611 | – | – | 0.0842 | – | –
I139W | 0.0555 | 0.074 | 0.0598 | 0.0708 | – | – | 0.0691 | – | 0.0689 | 0.0621 | 0.0629 | 0.0732 | – | 0.0521 | 0.0535 | 0.0605 | 0.0609 | – | –
L61E | 0.0704 | – | 0.0513 | – | 0.121 | 0.0743 | 0.0812 | 0.0641 | 0.0558 | 0.0614 | 0.0603 | – | – | – | 0.0617 | 0.0638 | 0.0511 | – | 0.0748
V210C | 0.056 | 0.0656 | 0.0625 | 0.0464 | 0.099 | 0.0596 | 0.0644 | 0.06 | 0.0623 | 0.0617 | 0.0643 | 0.0618 | – | 0.0579 | 0.0655 | 0.0648 | 0.0573 | 0.0533 | –
D161Y | 0.0434 | 0.0571 | – | – | – | 0.0502 | – | 0.0559 | 0.0647 | 0.0664 | – | 0.0508 | 0.0007 | 0.0431 | 0.0282 | – | 0.0472 | 0.028 | 0.0614
M122N | 0.104 | 0.0704 | 0.0346 | 0.0354 | 0.111 | – | 0.0706 | 0.0617 | 0.0546 | – | – | 0.09 | – | 0.0554 | 0.0654 | – | – | – | 0.0357
L112R | 0.0634 | 0.056 | 0.0574 | 0.0665 | – | 0.0283 | – | – | 0.0568 | 0.0559 | 0.0743 | 0.0574 | 0.0563 | – | 0.0496 | 0.0751 | – | 0.0573 | 0.0524
K98T | 0.053 | – | 0.0664 | – | 0.105 | 0.076 | 0.0736 | 0.0542 | 0.0664 | 0.0576 | – | 0.0631 | 0.0581 | 0.0618 | 0.0654 | 0.0624 | – | – | 0.0645
L73T | 0.0525 | 0.0616 | 0.0522 | – | 0.0685 | 0.0694 | 0.0499 | 0.0593 | 0.0686 | 0.0601 | 0.0522 | 0.0693 | – | 0.0557 | 0.0551 | 0.0552 | 0.0605 | – | 0.0503
Y179K | 0.061 | 0.0476 | – | – | – | 0.0668 | – | 0.0741 | 0.0532 | 0.051 | – | – | – | – | 0.0693 | – | 0.0536 | – | 0.0635
D128V | 0.0548 | 0.0718 | 0.0645 | 0.0498 | – | 0.0632 | – | 0.0933 | 0.059 | 0.0687 | 0.0724 | 0.0618 | – | 0.0682 | 0.0722 | 0.066 | 0.0507 | 0.0649 | 0.0543
R109E | 0.0633 | 0.0626 | 0.059 | 0.0571 | 0.124 | 0.0539 | 0.0932 | 0.0694 | 0.0621 | – | 0.0656 | – | – | 0.0633 | 0.0423 | 0.0694 | – | 0.0526 | 0.0721
P228H | 0.0606 | 0.0685 | 0.0582 | 0.0582 | – | 0.0376 | – | 0.0629 | 0.0557 | 0.0601 | 0.0608 | – | 0.0997 | – | 0.0687 | – | 0.0545 | – | –
V58F | 0.0581 | – | 0.0752 | 0.0496 | 0.0998 | – | – | – | – | – | – | – | 0.0406 | 0.0404 | 0.0443 | – | – | – | –
I84F | 0.0379 | – | 0.0654 | 0.0476 | 0.0703 | – | 0.0669 | 0.0638 | 0.0597 | – | 0.0593 | – | – | – | – | 0.0638 | 0.0518 | 0.0549 | 0.0519
